Assay results as given in the supplement of paper PMC10338343.
± gives the standard deviation. Whole data set: some 6,600 sequences, median “pre-steady-state target cleavage rate” near 0.07, cut for the highest 2% near 0.72. This is a selection; strong and weak results do not stand in their true shares.

The sequences below were run on MIWI (PIWIL1) piRISC loaded with Kctd7 piRNA (30 nt) (assay: pre-steady-state target cleavage rate (min^-1); MIWI and MILI are mouse PIWI proteins and EfPiwi is from a freshwater sponge; tags in brackets are library labels; higher = faster piRNA-guided slicing of the target). Conditions: guide: Kctd7 piRNA 5'p-UGUUAAUCUCUCAGAGAAGGUGACAGUGAU; auxiliary factor: 500 nM mouse GTSF1.
Procedure: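 Cleave-'n-Seq: a library of target RNAs (target site embedded in constant flanks, ACAGCATTCCGCGTTAGTGATATCCG... 5' flank; DNA-blocked outside the site) at 0.1 nM was incubated with 1 nM active mouse MILI or MIWI piRISC (synthetic 5'-monophosphorylated piRNA guide) with or without 500 nM mouse GTSF1 at 33 °C for 1 min to 16 h. Uncleaved targets were sequenced and normalised to non-target controls, and the pooled three trials were fitted to a burst-and-steady-state model to give the pre-steady-state cleavage rate (min^-1; k3 is constrained to at most 1e-4). Sequence is the target site only; target names encode pairing extent (gX:gY) and contiguous / 1-mismatch / 2-mismatch / bulge geometry. Fits with R² ≤ 0 are excluded.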

Sequence	pre-steady-state target cleavage rate
UAGUGACUCACCAUUCUCUGAGAGAUUAACA	0.141 ± 0.014
UAGUGAGUCUCCUUCUCUGAGAGAUUUUGA	0.0143 ± 0.0051
UAGUCUGUCCCCUUCUCUGAGAGAUUAACA	0.597 ± 0.041
UAGUCUGUCACCUUCUCUGAGAGAAUAUGA	0.0243 ± 0.01
UAGUCUGUCACCUUCUCUGUGAGAUUAUGA	0.0115 ± 0.0063
UAGUGUGUCACCUUCUCAGAGAGAAUAACA	0.114 ± 0.03
UAGUGACAGUGGAAGUCUGACACAUUAACA	< 0.0001
UAGUGAGACACCUUCUCUGACAGAUUAACA	0.191 ± 0.022
UAGACUGUCACCUUCUCUCAGAGAUUUACA	0.0796 ± 0.011
UUCACUCAGACCUUCUCUGAGAGAUUAUGA	0.0052 ± 0.0036
UAGACAGUCACCUACUCUGAGAGAUUAACA	0.575 ± 0.031
UAGUGACACACCUUCUCUGAGAGAUAUUCA	0.0426 ± 0.012
UUCACUGACACCUUCUCUGUGAGAUUAACA	0.169 ± 0.015
UAGACUGUCACCUUCUCUGAGAGAUGAACA	0.205 ± 0.033
UAGUGUGUCACCUUCACUGAGAGAUAUUGA	0.0216 ± 0.0079
UAGUCUCUCACCUUCUCUGAGAGAUUAUCA	0.059 ± 0.017
UAGUGACACAGCUUCUCUGUGAGAUUAACA	0.0274 ± 0.0044
UAGUCUGUCACGAUCUCUGAGAGAUUAUGA	0.00666 ± 0.0043
AUCACUGUGAGCUUCUCUGAGAGAUUAACA	0.618 ± 0.033
UAGACUGUCACCUUCUGUGAGAGAUAAACA	0.261 ± 0.022
UUCACUGUCACCUUCUCUGAGAGAAUAAGA	0.219 ± 0.064
UACACUGUCUCCAUCUCUGAGAGAUUAACA	0.557 ± 0.031
UAGUGACACACCUUCUCUGAGAGAUUACACA	0.205 ± 0.034
UAGUGACUCCCUUCUCUGAGAGAUUAACA	0.0663 ± 0.013

Sequence	pre-steady-state target cleavage rate
UAGUGUGUCAGCUUCUCAGAGAGAUUAACA	0.209 ± 0.014
AUCAGUGUCACCUUCUCUGAGAGAUAAACA	0.348 ± 0.038
UAGUGAGUCACCUUCUCUGAGAGAUAAUGA	0.04 ± 0.014
UAGUGACUCACGUUCUCUGAGAGAUAAACA	0.119 ± 0.022
UAGUGACACUCCUUCUCUGAGAGAUUUACA	0.104 ± 0.016
AUCACUGUCACCUAGUCUGAGAGAUUAUGA	0.0913 ± 0.023
UACACUGAGUCCUUCUCUGAGAGAUUAUGA	0.0326 ± 0.0095
AUCACUGUGACCUUCUCUGAGUGAUUAACA	0.0276 ± 0.0046
AUCACUGUCAGCUUCUGUGAGAGAUUAACA	0.577 ± 0.028
UAGUGAGUCACCUUCACUGAGAGAUUUUGA	0.0525 ± 0.017
UAGUCUGUCACCAAGUCUGAGAGAUUAACA	0.112 ± 0.016
UAGUGACAGUCCUUCUCUGAGAGAUUAAGCA	0.0248 ± 0.0054
UAGUGACACACGUUCACUGAGAGAUUAACA	0.12 ± 0.019
UAGACUGUCACCAUCUCAGAGAGAUUAACA	0.0694 ± 0.0084
UAGACUGUCACCUUCUCUGAGAGUUAAACA	0.0471 ± 0.011
UAGUGACUCACCUUCUCUGACAGAUUUACA	0.0724 ± 0.013
UUCACUGUCAGGAUCUCUGAGAGAUUAAGA	0.0127 ± 0.0029
UAGUCUGUCACCUUCUCUGAGAGAUUAACCA	0.459 ± 0.02
UAGUGACUCACCUUCUCUGAGAGAAUAACA	0.251 ± 0.037
UUCACUGUCACCUAGUCUGAGAGAUUAAGA	0.0716 ± 0.014
UACUGUGUCACCUUCUCUGAGAGAUAUUGA	0.035 ± 0.0099
AACACUGUCACCUACUCUGAGAGAUUAACA	0.687 ± 0.037
UUCACUGUCACCUUCUCUGAGAGCAUUAACA	0.373 ± 0.029
UAGUGACAGACCUUCUCUGAGAGAUUAGACA	0.0939 ± 0.022

Sequence	pre-steady-state target cleavage rate
AUCACUGAGUCCUUCUCUGAGAGAUUAAGA	0.104 ± 0.021
UACACUGUCACCUUCUCUGACAGAUAUUGA	0.00642 ± 0.0045
UACACUGUCACCUUCUCUGAAGAGAUUAACA	0.00941 ± 0.005
UUCACUGUCACCUUCUCAGAGAGAUUAAGA	0.0728 ± 0.016
UACACUGAGUCCUUCUCUGAGAGAUUUUGA	0.0105 ± 0.004
UUCACUGUCACGUUCUCUGAGACAUUAACA	0.0142 ± 0.0036
UAGUGUGUCACCUUCUCUCAGAGAUUAUGA	0.00794 ± 0.0052
UUCACUGUCACCUUCACUGAGAGAUAUUGA	0.189 ± 0.05
UACACUGUCACGUUCUCUGAGAGAUUUUGA	0.00804 ± 0.004
UACACUGUCAACCUUCUCUGAGAGAUUAACA	0.193 ± 0.016
UUCACUCUCACCUUCUCUGAGAGAAUAACA	0.163 ± 0.026
UAGUCUCUCACCUUCUCUGAGAGAUUAACA	0.0594 ± 0.01
UACUGAGUCACCUUCUCUGAGAGAUUAUGA	0.144 ± 0.025
UAGAGUCUCACCUUCUCUGAGAGAUUAACA	0.655 ± 0.033
UUCACUGUCAGCUACUCUGAGAGAUUAACA	0.574 ± 0.037
UAGUGUGUCACGUUCUCUGAGAGAUUAUCA	0.134 ± 0.014
UACACUGUCACCUUCUCACAGAGAUUAAGA	0.00665 ± 0.0053
UAGUGACACAGCUUCUCUGAGAGAAUAACA	0.0206 ± 0.0056
UAGUGACUCAGCUUCUCUGAGAGAUUUACA	0.054 ± 0.006
UUCACUGUCAGCUUCACUGAGAGAUUAACA	0.529 ± 0.026
UACACUGUCACCUUCUCUGAGAGUAAAACA	0.0984 ± 0.023
UAGUGACACACCUUCUCUGAGAGAUUAACG [g2:g22:cont:t1G]	0.373 ± 0.029
UAGACUGUCACCUUCUCUCAGAGUUUAACA	0.0473 ± 0.0063
UAGUCUGUCUCCUUCUCUGAGAGAUUAUGA	0.0296 ± 0.0076
